pIC50: −log10 of the molar value. Values belong to the molecule of their own block, whether it stands above or below them.
Columns and labels:
[1] = test system: various cancer cell lines; assay: Antitumor activity toward various cancer cell lines; format: cell-based; details: all cell lines of Table 2
[2] = test system: A3 (human acute T cell leukemia); assay: Antitumor activity toward A3 cells; format: cell-based; details: read-out: IC50 A3
[3] = cited from earlier work
[4] = test system: B and T cells from healthy donors; assay: Differential cytotoxicity: normal B and T-lymphocytes versus CLL cells; details: Figure 2
HeLa cells = assay: Cytotoxicity toward HeLa cells; format: cell-based; details: 0.084 μM to 17 μM
[5] = Human plasma protein binding and recovery

pIC50 [2]: < 6.00
SMILES: CN1C(=O)N[C@H]2[C@@H]3NC(=O)c4cc(Br)c(Br)n4[C@@H]3C[C@]21O [AglB (4), AgelB]
fold less potent than AglA toward all cell lines [1]: ~ 10 X

SMILES: CN1C(=O)N[C@H]2[C@@H]3NC(=O)c4ccc(Br)n4[C@@H]3C[C@]21O [AglA (1), (−)-Agelastatin A]
blood-brain barrier penetration [3]: excellent blood-brain barrier penetration
toxicity toward B and T cells from healthy donors compared to CLL cells [4]: less toxic toward B and T cells from healthy donors

SMILES: CN1C(=O)N[C@H]2[C@@H]3NC(=O)c4ccc(Br)n4[C@@H]3C[C@]21N [Compound 18]
reduction of activity toward HeLa cells versus AglA (HeLa cells): ~ 200 X

pIC50 [2]: < 6.00
SMILES: Cc1ccc2n1[C@@H]1C[C@]3(O)[C@@H](NC(=O)N3C)[C@@H]1NC2=O [Compound 25]

recovery / stability in plasma (in words) [5]: full recovery
plasma protein binding (in words) ([5]; human plasma and FBS): not highly protein bound
SMILES: CN1C(=O)N[C@H]2[C@@H]3NC(=O)c4cc(Cl)c(Br)n4[C@@H]3C[C@]21O [Compound 3, 14-chloro AglA]

— paper PMC5522753 (Bioorganic & medicinal chemistry letters, 2016)
